The supplement of paper PMC3334620
In all, about 33,000 sequences were measured (“E-score (-0.5 to 0.5)”: median about -0.043, highest 2% from about 0.37 on). The list shows a part of the results.

What follows are sequences tested against T1, Upc2 (UniProt Q12151) (assay: PBM E-score (8-mer binding enrichment) (E-score (-0.5 to 0.5)); higher = stronger / more preferred TF binding; most listed sequences are background and not binding sites). Conditions: protein concentration: 200 nM; construct: GST-full length.
T1 sequence: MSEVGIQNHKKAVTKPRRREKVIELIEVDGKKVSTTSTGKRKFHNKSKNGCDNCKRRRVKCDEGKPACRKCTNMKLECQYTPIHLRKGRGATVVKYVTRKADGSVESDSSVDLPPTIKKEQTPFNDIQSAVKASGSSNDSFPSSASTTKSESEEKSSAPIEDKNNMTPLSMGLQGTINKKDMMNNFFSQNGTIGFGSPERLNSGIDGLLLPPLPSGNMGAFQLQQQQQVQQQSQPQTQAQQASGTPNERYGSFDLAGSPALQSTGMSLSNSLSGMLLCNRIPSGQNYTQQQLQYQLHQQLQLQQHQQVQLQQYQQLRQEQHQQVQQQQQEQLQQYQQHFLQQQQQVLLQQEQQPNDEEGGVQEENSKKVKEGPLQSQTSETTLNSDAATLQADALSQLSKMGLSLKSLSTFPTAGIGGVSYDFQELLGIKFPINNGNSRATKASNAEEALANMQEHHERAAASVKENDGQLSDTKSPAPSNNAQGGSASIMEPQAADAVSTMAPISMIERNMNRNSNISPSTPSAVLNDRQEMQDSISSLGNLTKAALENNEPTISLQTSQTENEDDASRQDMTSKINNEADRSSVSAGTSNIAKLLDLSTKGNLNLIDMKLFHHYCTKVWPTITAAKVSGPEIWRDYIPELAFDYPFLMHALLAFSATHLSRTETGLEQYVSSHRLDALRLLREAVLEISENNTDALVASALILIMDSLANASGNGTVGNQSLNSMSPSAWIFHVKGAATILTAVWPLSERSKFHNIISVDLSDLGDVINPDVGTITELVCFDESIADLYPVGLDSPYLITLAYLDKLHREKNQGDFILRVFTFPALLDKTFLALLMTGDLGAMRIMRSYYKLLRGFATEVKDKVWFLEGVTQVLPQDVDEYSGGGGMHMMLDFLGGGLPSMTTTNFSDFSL
Outline: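 Yeast transcription factors, full-length or as DNA-binding domains, were expressed with a GST tag using PURExpress in vitro transcription/translation. At about 100-200 nM they were applied to universal all-10-mer Agilent arrays, double-stranded by primer extension on fresh or once-stripped slides. Fluorescent anti-GST detected bound protein, and masliner normalised the scans. E-scores for ungapped eight-base words, pooled with reverse complements, came from the Universal PBM Analysis Suite.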

Sequence | PBM E-score
ATTTCCTC | -0.0745
CATAGCGG | -0.0762
GGGACTCA | -0.284
TCGCACGA | 0.0732
CAGATTCG | -0.0377
CCAGACCC | -0.192
ACCAGATG | -0.199
CCGAGGGA | 0.00072
CGGGCCCC | -0.124
GGTGACAC | -0.312
AGGCGCCA | -0.196
AAAAACTT | -0.0704
CCTGCTCC | -0.0623
AATCATGA | 0.0697
TCAAGACA | -0.286
AGTTTGGC | -0.015
AATAAAAG | 0.0452
CCAAGTCA | -0.137
AATACAAG | 0.00549
CAGCTCCA | -0.241
CCGCCCCC | -0.134
CTCGAAAC | 0.0826
CAAACAGG | -0.0601
CAGCGGGC | -0.329
CTGTGGGA | -0.194

Sequence | PBM E-score
GCGATAGC | 0.0279
TAGAGAAA | 0.00343
CTAATTTC | 0.0527
CAAATACA | -0.00056
GCTTCATA | -0.162
AAGCAAAA | -0.00335
CACACGGG | -0.277
CGTAAGGC | 0.268
GAACCGCC | -0.0633
TCCCCGGA | -0.0623
CTAGTTTC | -0.0213
CGTTCGCC | 0.227
CAGGGGAA | -0.11
ATCCGCAC | -0.0554
CACAATCA | -0.171
GGATACAC | 0.00698
AGACGCAT | -0.0879
CCATAAAG | -0.136
ATCTTGCC | -0.0505
GACTTAGC | -0.159
ACTTGTAG | -0.131
ACCTCGGC | 0.0177
ACAGTGCC | -0.101
TCCTCGAA | 0.0179
GAAAATTC | 0.0172

Sequence | PBM E-score
AACGGACA | 0.249
CCTAATGC | -0.217
ACGGAGCC | -0.0783
AGGCGTAC | 0.238
ACTGACTG | -0.0255
TAATACTA | 0.105
AATTTTTC | 0.038
CGCACTCC | -0.0478
ACCCGAAT | 0.178
CTGATAAC | 0.0192
ATCTAAAA | -0.0555
AATTCACT | -0.234
AGCGCGCG | 0.0572
AAACCTCG | 0.0616
ACAGTCCT | -0.319
ATCCTCAC | 0.0717
ATTGAAGA | -0.226
ATTATGCC | -0.0194
CAGACATG | -0.0207
AGCTACCC | -0.265
CGACCGTC | -0.0557
ACAACCGA | 0.167
ATAGGAGG | -0.26
TGGAATAA | 0.0285
AGTGAGAA | -0.0477

Sequence | PBM E-score
GCTCGCTA | 0.196
AGTACCAT | 0.0365
TAGCTTGA | -0.0392
CCCTCGCG | 0.147
TAGTGCGA | -0.0997
GACGAAGA | -0.0247
ATAATTGA | 0.0764
CGTGTAAC | 0.0107
ATCCCTCC | -0.158
CGGTATCC | 0.00595
TTACCCAA | -0.0792
ACCACACT | -0.109
CTGAGGGC | -0.0785
ATAAATAT | 0.0205
CGGTCGCC | 0.126
CTACACCC | -0.296
GCGGCCAC | -0.267
TCGCACCA | 0.15
GAGATTAC | -0.0768
CGCACGGA | 0.00832
CACTTACC | 0.0944
CGGGGAAA | 0.0981
TGCCATAA | -0.142
GAAGTAAC | -0.0181
CGATGTTA | 0.0277

Sequence | PBM E-score
CCTGTGCG | 0.0706
CAACTTAA | 0.0267
AGTAGAAA | 0.185
TACCCTAA | 0.0855
GTGCAACA | -0.249
GTGTGATA | 0.135
AGGTTTAT | 0.133
AATTCACC | -0.019
GATATCCC | -0.0348
AAGATGGC | -0.0955
ATGATCGA | 0.12
ACGGATCC | 0.141
CAATGTGC | 0.131
GATATGCA | -0.0442
AGGGTACC | -0.241
GCGACATA | 0.164
AAGGAGCG | 0.102
GACGTTAC | 0.18
GTCTGGAA | -0.122
CCATGCTA | -0.231
ATCTGTCG | 0.185
ATCCCTTA | -0.0554
TCTTCAAA | -0.183
GCATAGTA | 0.109
AAGACGTG | -0.182

Sequence | PBM E-score
AGATTGAT | -0.202
GCCGTCTA | -0.0991
CATGTTGA | -0.02
CTCAGTTC | -0.108
ATAATGAG | 0.105
CACACCTG | -0.188
GCCTACCA | -0.22
AGGCACGG | -0.188
AAACTGAT | -0.0822
GTGCATGA | -0.0886
ACCATAGA | -0.18
CTCATCGC | -0.0145
CGTCGATC | -0.0198
CTAACAAA | -0.108
TACACACA | 0.103
AACCAGTA | 0.0766
AAGTCTTA | -0.133
GTAACAAC | 0.0557
GCTAACAA | 0.0294
GGCGTGCA | -0.286
ACCAGCAC | -0.212
CCAAGCCG | -0.242
GGCGATGA | -0.0714
AGAGCTCT | -0.248
AGCCCGAG | -0.137

Sequence | PBM E-score
CGGCCAGC | -0.175
TATGGCCA | -0.134
AGTCGACA | 0.0616
CTTAACTC | -0.108
CCTCGAAA | 0.037
AAGGAGTA | -0.26
CGACGTGC | 0.179
ATCGTCTA | 0.143
CGAACTTA | 0.174
AATTGTCG | 0.02
TAAGCGCA | 0.0966
ACCAATGG | -0.303
CACCCACC | -0.208
CCCCAGAA | -0.186
AAGGTATA | 0.149
ATCCGCGA | -0.079
GAGTGCCC | -0.0874
GGTTCACA | -0.177
TAAGTTGA | -0.111
CCCAGAGC | -0.306
GGCATACA | -0.00169
ACAGTCAC | -0.148
